Assay results: the supplement of paper PMC2702839
Structures can show the parent of a compound that is named as a salt. The list shows a part of the results.

test system: Schistosoma mansoni schistosomula; assay: phenotypic hit in primary schistosomula screen (any phenotype vs DMSO control) (binary (1 = hit, 0 = no phenotype)); higher = active (phenotype induced); conditions: 1 µM; time (d): 7

Phenotypic hit, active:
NC(N)=NC(N)=Nc1ccccc1 [1-Phenylbiguanide] 1

Phenotypic hit, inactive:
Nc1nc(=O)c2c([nH]1)NCC(CNc1ccc(C(=O)N[C@@H](CCC(=O)O)C(=O)O)cc1)N2C=O (stereo partly drawn) [leucovorin calcium] 0
COC(=O)[C@H](O)[C@H]1C(C)(C)[C@H](OC(C)=O)[C@@H]2CC3=C4CC(=O)O[C@@H](c5ccoc5)[C@]4(C)CC[C@@H]3[C@@]1(C)C2=O [swietenolide-3-acetate] 0
COc1cc(O)c2c(=O)c(-c3ccc(O)cc3)coc2c1 [prunetin] 0
C=CC(C1=CC(=O)C(OC)=CC1=O)c1ccc(O)cc1 (stereo not drawn) [dalbergione, 4-methoxy-4'-hydroxy-] 0
CN(C)CCC(c1ccccc1)c1ccccn1 (stereo not drawn) [pheniramine maleate] 0
Nc1ccn([C@@H]2O[C@H](CO)[C@@H](O)[C@H]2O)c(=O)n1 [cytidine] 0
CCCCCC1C(=O)CCC1CC(=O)O (stereo not drawn) [dihydrojasmonic acid] 0
CC(C)CCC[C@@H](C)[C@H]1CC[C@H]2[C@@H]3CC=C4C[C@@H](O)CC[C@]4(C)[C@H]3CC[C@]12C [cholesterol] 0
NCCc1ccc(O)c(O)c1 [Dopamine hydrochloride] 0
CC(C)c1c(O)ccc2c1CCC1[C@@](C)(C=O)CCC[C@]21C (stereo partly drawn) [totaralolal] 0
COC(=O)/C(C)=C\CC12OC(C)(C)C3CC(C=C4C(=O)c5c(O)c6c(c(CCC(C)(C)Cl)c5OC431)OC1(C)CCC(=C(C)C)C6C1)C2=O (stereo not drawn) [gamboginic acid, methyl ester] 0
COC(=O)[C@@]1(C)CCC[C@]2(C)c3ccc(O)c(C(C)C)c3CCC12 (stereo partly drawn) [totarol-19-carboxylic acid, methyl ester] 0
COc1ccc2c(=O)cc(-c3ccccc3OC)oc2c1 [7,2'-dimethoxyflavone] 0
CC1(C)O[C@@H]2C[C@H]3[C@@H]4C[C@H](F)C5=CC(=O)C=C[C@]5(C)[C@H]4[C@@H](O)C[C@]3(C)[C@]2(C(=O)CO)O1 [flunisolide] 0
C[C@H](CS)C(=O)N1CCC[C@H]1C(=O)O [Captopril] 0
CN(Cc1cc(Br)cc(Br)c1N)C1CCCCC1 [bromhexine hydrochloride] 0
CC(C)CCC[C@@H](C)[C@H]1CC[C@H]2[C@@H]3C[C@@H](O)[C@@]4(O)C[C@@H](O)CC[C@]4(C)[C@H]3CC[C@]12C [cholestan-3beta,5alpha,6beta-triol] 0
